Values joined by “and” are separate entries in the source; they are usually repeats but may differ in a detail not shown here. Equal values may be shown once. Inconclusive results, whose numbers are uncertain, are shown with a selection of clear calls. For some of these results: No potency is given beside an inconclusive call; the fits are too rough. Active and inactive are the calls of the source. Unless noted, calls come from the whole dose curve; as a rule, active = well fitted curve in the direction sought with a large enough effect in the repeat runs; inconclusive = weak or mixed curves; inactive = no such curve, though single readings can be large; an effect the other way counts as inactive or inconclusive.
Columns and labels:
[1] = qHTS assay for small molecule agonists of the antioxidant response element (ARE) signaling pathway (AID 743202; active = well fitted activation curve with a large enough effect in the signal ratio in the repeat runs, not every such curve was filed as active; inconclusive = weak or mixed curves, or effect the other way; inactive = no such curve, though single readings can be large or run the other way; the % refers to the signal ratio; note: potency is the fitted concentration of half-maximal effect); settings: HepG2 ARE-bla reporter, beta-lactamase FRET, 16 h; activation: at 73.3 µM (top of the series) unless noted
Method in brief: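 HepG2 ARE-bla cells; 16 h treatment at 37 C; FRET-based beta-lactamase fluorescence read after 2 h substrate incubation at room temperature.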

[2] = qHTS assay to identify small molecule agonists of the farnesoid-X-receptor (FXR) signaling pathway - cell viability counter screen (AID 743218); settings: FXR-bla HEK293T viability, CellTiter-Glo luminescence, 16 h; viability change, negative = cytotoxic: at 62.6 µM (top of the series) unless noted; note: nearly all actives have a fitted effect of over 45% in size; note: potency is the fitted concentration of half-maximal effect
Method in brief: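 Viability of FXR-bla HEK 293T cells is measured by ATP-based CellTiter-Glo luminescence following 16 h compound treatment at 37 C and a prior 2 h room-temperature beta-lactamase substrate step.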

[3] = molecular target: Vitamin D3 receptor (Homo sapiens) (UniProt P11473); assay: qHTS assay to identify small molecule antagonists of the vitamin D receptor (VDR) signaling pathway (AID 743223; active = well fitted inhibition curve with a large enough effect in the signal ratio in the repeat runs, not every such curve was filed as active; inconclusive = weak or mixed curves, or effect the other way; inactive = no such curve, though single readings can be large or run the other way; the % refers to the signal ratio; note: potency is the fitted concentration of half-maximal effect; for activity change, negative = inhibition: % is set by controls: 0 for no effect and ±100 for the full control effect); settings: VDR-UAS-bla HEK293T, beta-lactamase FRET ratio, 16 h; activity change, negative = inhibition: at 61 µM (top of the series) unless noted
UniProt P11473, sequence (P11473 whole entry, looked up): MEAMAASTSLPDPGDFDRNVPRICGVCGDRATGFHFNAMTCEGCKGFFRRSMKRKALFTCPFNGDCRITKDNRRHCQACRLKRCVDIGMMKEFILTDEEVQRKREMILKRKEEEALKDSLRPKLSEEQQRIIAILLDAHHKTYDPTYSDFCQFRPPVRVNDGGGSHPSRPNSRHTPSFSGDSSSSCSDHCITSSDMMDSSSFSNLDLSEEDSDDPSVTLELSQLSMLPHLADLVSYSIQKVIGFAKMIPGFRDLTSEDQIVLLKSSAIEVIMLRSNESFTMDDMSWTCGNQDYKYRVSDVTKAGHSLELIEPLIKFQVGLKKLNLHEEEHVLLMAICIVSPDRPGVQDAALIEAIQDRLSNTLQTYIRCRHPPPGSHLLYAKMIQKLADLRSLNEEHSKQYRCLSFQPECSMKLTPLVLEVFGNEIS
Method in brief: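 Beta-lactamase activity in VDR-bla cells is measured by FRET substrate fluorescence (2 h, room temperature) after cells spend 16 h at 37C with test compound and 3 nM final 1alpha,25-dihydroxyvitamin D3.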

[4] = qHTS assay to identify small molecule agonists of the peroxisome proliferator-activated receptor delta (PPARd) signaling pathway - cell viability counter screen (AID 743211); settings: PPARd-bla HEK293H viability, CellTiter-Glo luminescence, 17 h; activity change, negative = cytotoxicity: at 62.6 µM (top of the series) unless noted; note: nearly all actives have a fitted effect of over 55% in size; note: potency is the fitted concentration of half-maximal effect; for activity change, negative = cytotoxicity: % is set by controls: 0 for no effect and ±100 for the full control effect
Method in brief: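 Following 5 h plating at 37 C and 5% CO2, PPARd UAS-bla HEK293H cells took up test compounds for 17 h. Viability was quantified by luminescence 30 min after CellTiter-Glo addition at room temperature.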

[5] = qHTS assay for small molecule activators of the heat shock response signaling pathway - cell viability counter screen (AID 743209); settings: HSE-bla HeLa viability, CellTiter-Glo luminescence, 5 h; activity change, negative = cytotoxicity: at 62.6 µM (top of the series) unless noted; note: nearly all actives have a fitted effect of over 50% in size; note: potency is the fitted concentration of half-maximal effect
Method in brief: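 Viability of HSE-bla HeLa cells is measured with CellTiter-Glo in the wells already used for the reporter read. Compound exposure lasts 5 h at 37 C, and luminescence is read after 30 min at room temperature.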

[6] = qHTS assay for small molecule activators of the heat shock response signaling pathway (AID 743210; active = well fitted activation curve with a large enough effect in the signal ratio in the repeat runs, with a control signal flat, not every such curve was filed as active; inconclusive = weak or mixed curves; the % refers to the signal ratio; note: potency is the fitted concentration of half-maximal effect); settings: HeLa HSE-bla reporter, beta-lactamase ratio, 5 h; activation: at 62.6 µM (top of the series) unless noted
Method in brief: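 Following overnight attachment, HSE-bla HeLa cells received test compounds for 5 h at 37 C; beta-lactamase activity was then detected via FRET substrate fluorescence.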

[7] = qHTS assay to identify small molecule antagonists of the peroxisome proliferator-activated receptor delta (PPARd) signaling pathway - cell viability counter screen (AID 743213); settings: PPARd-bla HEK293H viability, CellTiter-Glo luminescence, 17 h; viability change, negative = cytotoxic: at 62 µM (top of the series) unless noted; note: potency is the fitted concentration of half-maximal effect; nearly all actives have a fitted effect of over 50% in size
Method in brief: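 Cytotoxicity counter screen: CellTiter-Glo luminescence read 30 min after addition, in the same wells as the reporter assay. There, PPARd UAS-bla HEK293H cells (3000/well) were treated 17 h at 37 C with compound and 300 nM L165041.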

[8] = qHTS assay to identify small molecule antagonists of the farnesoid-X-receptor (FXR) signaling pathway - cell viability counter screen (AID 743221; active = well fitted cell-killing curve with a large enough effect in the repeat runs, not every such curve was filed as active; inconclusive = weak or mixed curves, or effect the other way; inactive = no such curve, though single readings can be large or run the other way; note: potency is the fitted concentration of half-maximal effect; nearly all actives have a fitted effect of over 50% in size); settings: FXR-bla HEK293T viability, CellTiter-Glo luminescence, 16 h; activity change, negative = cytotoxicity: at 62.6 µM (top of the series) unless noted
Method in brief: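 Compound effects on cell number were measured as CellTiter-Glo luminescence in HEK 293T cells expressing FXR-UAS-bla, after 16 h at 37 C with 50 uM CDCA (final).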

[9] = molecular target: Bile acid receptor (Homo sapiens) (UniProt Q96RI1); assay: qHTS assay to identify small molecule antagonists of the farnesoid-X-receptor (FXR) signaling pathway (AID 743217; active = well fitted inhibition curve with a large enough effect in the signal ratio in the repeat runs, not every such curve was filed as active; inconclusive = weak or mixed curves, or effect the other way; inactive = no such curve, though single readings can be large or run the other way; the % refers to the signal ratio; note: % is set by controls: 0 for no effect and ±100 for the full control effect); settings: HEK293T FXR-UAS-bla, beta-lactamase ratio, CDCA-stimulated, 16 h; activity change, negative = inhibition: at 62.6 µM (top of the series) unless noted
UniProt Q96RI1, sequence (Q96RI1 whole entry, looked up): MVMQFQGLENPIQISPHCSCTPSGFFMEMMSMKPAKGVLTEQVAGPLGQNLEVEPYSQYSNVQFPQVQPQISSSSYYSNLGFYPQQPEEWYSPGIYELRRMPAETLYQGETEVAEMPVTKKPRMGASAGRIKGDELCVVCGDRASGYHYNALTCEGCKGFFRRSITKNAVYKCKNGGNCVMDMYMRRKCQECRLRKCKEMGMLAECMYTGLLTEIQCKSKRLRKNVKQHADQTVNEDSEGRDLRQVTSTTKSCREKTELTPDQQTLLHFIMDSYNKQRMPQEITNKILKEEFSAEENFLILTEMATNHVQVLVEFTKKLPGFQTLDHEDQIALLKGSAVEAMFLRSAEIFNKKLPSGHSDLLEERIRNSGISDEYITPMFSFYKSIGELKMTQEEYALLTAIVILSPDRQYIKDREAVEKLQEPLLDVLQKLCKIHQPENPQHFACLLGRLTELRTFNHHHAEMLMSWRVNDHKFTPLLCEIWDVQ
Method in brief: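 Screen of the Tox21 10K library in quantitative HTS format using FXR-UAS-bla HEK 293T reporter cells. Agonist chenodeoxycholic acid, 50 uM final, added with compounds; 16 h incubation at 37 °C; beta-lactamase FRET fluorescence measured.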

[10] = qHTS assay to identify small molecule agonists of the vitamin D receptor (VDR) signaling pathway - cell viability counter screen (AID 743224); settings: VDR-bla HEK293T viability, CellTiter-Glo luminescence, 16 h; activity change, negative = cytotoxicity: at 62.6 µM (top of the series); note: nearly all actives have a fitted effect of over 50% in size; note: potency is the fitted concentration of half-maximal effect
Method in brief: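 Compounds were pin-transferred onto VDR-bla cells plated 4 h earlier; following 16 h incubation at 37C, cell viability was quantified by CellTiter-Glo luminescence after 30 min at room temperature.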

[11] = molecular target: Bile acid receptor (Homo sapiens) (UniProt Q96RI1); assay: qHTS assay to identify small molecule agonists of the farnesoid-X-receptor (FXR) signaling pathway (AID 743220; active = well fitted activation curve with a large enough effect in the signal ratio in the repeat runs, not every such curve was filed as active; inconclusive = weak or mixed curves, or effect the other way; the % refers to the signal ratio; note: potency is the fitted concentration of half-maximal effect); settings: HEK293T FXR-UAS-bla, beta-lactamase FRET ratio, 16 h; activation: at 62.6 µM (top of the series) unless noted
Method in brief: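 FXR-UAS-bla HEK 293T cells carrying a UAS-driven beta-lactamase reporter were plated for 5 h at 37C/5% CO2, then exposed to DMSO-dissolved Tox21 10K compounds for 16 h at 37C. A LiveBLAzer B/G FRET substrate was loaded for 2 h at room temperature before fluorescence reading.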

[12] = qHTS assay for small molecule agonists of the antioxidant response element (ARE) signaling pathway - cell viability counter screen (AID 743203; calls by dose curve; note: nearly all actives have a fitted effect of over 55% in size; note: potency is the fitted concentration of half-maximal effect); settings: ARE-bla HepG2 viability, CellTiter-Glo luminescence, 16 h; viability change, negative = cytotoxic: at 73.3 µM (top of the series)
Method in brief: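 Viability counter screen: stably transfected ARE-bla HepG2 line, 16 hrs compound exposure at 37C/5% CO2, ATP-based CellTiter-Glo luminescence measured in the reporter wells.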

[13] = molecular target: Peroxisome proliferator-activated receptor delta (Homo sapiens) (UniProt Q03181); assay: qHTS assay to identify small molecule antagonists of the peroxisome proliferator-activated receptor delta (PPARd) signaling pathway (AID 743215; active = well fitted inhibition curve with a large enough effect in the signal ratio in the repeat runs, not every such curve was filed as active; inconclusive = weak or mixed curves, or effect the other way; inactive = no such curve, though single readings can be large or run the other way; the % refers to the signal ratio;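 note: cells stimulated with agonist L165041 at 300 nM final during compound exposure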; note: potency is the fitted concentration of half-maximal effect); settings: HEK293H PPARd-UAS-bla, beta-lactamase FRET ratio, antagonist, 17 h; ratio activity, negative = inhibition: at 62 µM (top of the series) unless noted
UniProt Q03181, sequence (Q03181 whole entry, looked up): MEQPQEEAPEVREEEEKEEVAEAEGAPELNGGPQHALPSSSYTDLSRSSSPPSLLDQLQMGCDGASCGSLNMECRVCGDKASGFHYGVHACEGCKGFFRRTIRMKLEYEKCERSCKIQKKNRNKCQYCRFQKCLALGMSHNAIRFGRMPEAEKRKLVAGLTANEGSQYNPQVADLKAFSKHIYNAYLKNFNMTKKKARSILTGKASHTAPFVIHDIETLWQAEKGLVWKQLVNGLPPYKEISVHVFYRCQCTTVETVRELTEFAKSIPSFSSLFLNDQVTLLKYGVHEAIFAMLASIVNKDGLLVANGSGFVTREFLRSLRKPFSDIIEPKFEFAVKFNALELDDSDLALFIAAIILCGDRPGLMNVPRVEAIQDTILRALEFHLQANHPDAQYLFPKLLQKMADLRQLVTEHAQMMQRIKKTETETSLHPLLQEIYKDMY
Method in brief: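 Plated HEK293H PPARd-bla cells rested 5 h at 37 C and 5% CO2. Compound, then agonist L165041 at 300 nM final, was added; 17 h at 37 C followed. Substrate loading, 2 h room temperature, fluorescence measured.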

[14] = molecular target: Vitamin D3 receptor (Homo sapiens) (UniProt P11473); assay: qHTS assay to identify small molecule agonists of the vitamin D receptor (VDR) signaling pathway (AID 743222; calls by dose curve; note: potency is the fitted concentration of half-maximal effect); settings: HEK293T VDR-UAS-bla, beta-lactamase FRET ratio, 16 h; activation: at 63.5 µM (top of the series) unless noted
Method in brief: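 Fluorescence from cleaved LiveBLAzer B/G FRET substrate served as readout. VDR-bla cells had been treated 16 h at 37C with test compounds in DMSO, following a 4 h settling period, and substrate was loaded for 2 h at RT.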

[15] = molecular target: Peroxisome proliferator-activated receptor delta (Homo sapiens) (UniProt Q03181); assay: qHTS assay to identify small molecule agonists of the peroxisome proliferator-activated receptor delta (PPARd) signaling pathway (AID 743212; calls by dose curve; note: % is set by controls: 0 for no effect and ±100 for the full control effect); settings: HEK293H PPARd-UAS-bla, beta-lactamase FRET ratio, 17 h; activation: at 62.6 µM (top of the series) unless noted
Method in brief: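 Tox21 library screened in GeneBLAzer PPARd UAS-bla HEK293H cells. After compound treatment at 37 C, a FRET-based beta-lactamase substrate was applied for 2 h and fluorescence recorded.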
Tags give direction and shape of the fitted curve or compound fluorescence and quenching.

CCCCOc1ccc(OCCCN2CCOCC2)cc1
Potency [1]: inconclusive [rising, partial curve]
Potency [2]: inconclusive [rising, partial curve, poor fit]
activity change, negative = inhibition [3]: inconclusive: -11.7%

COC(=O)/C=C/c1ccccc1
Potency [4]: inactive

CC(C=O)Cc1ccc(C(C)(C)C)cc1 (stereo not given)
Potency [5]: inconclusive [cytotoxic, single point]
Potency [6]: inconclusive
Potency [7]: inconclusive [cytotoxic, full curve, poor fit]
Potency [2]: inactive
Potency [8]: inconclusive [rising, full curve, poor fit]
activity change, negative = inhibition [3]: inconclusive: 11% and inconclusive: 2.29%

c1cnc2c(n1)CCCC2
Potency [4]: inactive

CCC1Nc2cc(Cl)c(S(N)(=O)=O)cc2S(=O)(=O)N1 (stereo not given)
Potency [5]: inconclusive [cytotoxic, full curve, poor fit]
Potency [4]: inconclusive [cytotoxic, single point]
Potency [9]: inactive
Potency [10]: inactive

CCN(CC)c1ccc(C(=C2C=CC(=[N+](CC)CC)C=C2)c2cc(S(=O)(=O)O)ccc2S(=O)(=O)[O-])cc1
Potency [5]: inconclusive [cytotoxic, partial curve, poor fit]
Potency [4]: inconclusive [cytotoxic, partial curve, poor fit]
Potency [2]: inactive
activity change, negative = inhibition [3]: inconclusive: 13.4%

O=C(O)CCCCC(=O)O
Potency [1]: inactive
Potency [2]: inactive

O=C(O)CCCCCCC(=O)O
Potency [5]: inactive
Potency [11]: inconclusive [activator, single point]

CC(C)(C)C(=O)C(=O)O
activation [1]: inconclusive: -0.677%
Potency [8]: inconclusive [rising, full curve, poor fit]
Potency [3]: inconclusive [activator, partial curve, poor fit]

CCOC(=O)CC
Potency [12]: inactive
Potency [7]: inconclusive [cytotoxic, partial curve, poor fit]
Potency [13]: inactive
Potency [2]: inconclusive [rising, partial curve, poor fit]
activation [14]: inconclusive: 29.8%
Potency [3]: inconclusive [activator, single point]

CCCCCOC(=O)CCCC
Potency [6]: inconclusive [activator, single point]

CC=C(Cl)Cl
Potency [1]: inactive
Potency [2]: inactive
Potency [10]: inactive

O=C(O)O
Potency [5]: inconclusive [cytotoxic, single point]
Potency [6]: inconclusive [activator]
Potency [4]: inconclusive [cytotoxic, single point]
Potency [7]: active: 2.37 µM
Potency [13]: inconclusive [rising, partial curve]
viability change, negative = cytotoxic [2]: inactive: 5.67% [at 5.95 µM]
Potency [14]: inconclusive [single point]
Potency [10]: inconclusive [cytotoxic, single point]

COc1cc(N)c(Cl)cc1C(=O)NC1CCN(CCCOc2ccc(F)cc2)CC1OC (stereo not given)
Potency [5]: inactive
Potency [4]: inconclusive [cytotoxic, single point]
Potency [7]: inconclusive [cytotoxic, partial curve, poor fit]
Potency [13]: inactive
Potency [2]: inconclusive [cytotoxic, partial curve, poor fit]

CC(=O)N[C@@H](CS)C(=O)O
Potency [12]: inconclusive [cytotoxic, partial curve, poor fit]
Potency [6]: inconclusive [activator, single point]
Potency [15]: inactive
Potency [7]: inconclusive [cytotoxic, full curve, poor fit]
viability change, negative = cytotoxic [2]: inconclusive: 4.78%
Potency [10]: inactive
